The chains are these.
B1: LINE1-mini (parent)
chain: GGCAGAGCUCAACACAGCGUGGCAAAGUGGCUGUGGCUAGACUGCC

Read counts are not given, so values of variants with three or more changes are uncertain.

In this data set the parent is B1. The data set can be described thus: self-cleavage, relative activity (ratio to wild type); higher = more cleavage; in vitro, sequencing; the parent is a self-cleaving ribozyme.
Turning to G27A G29A C31G G40U, the self-cleavage was found to be 0.06.

In the case of G1U A12G U20A G22C, the self-cleavage amounted to 0.02.

Consider A25U G36U G40U, for which the self-cleavage came out at 0.19.

In the case of G1A C8G G36C G40U, the self-cleavage stood at 0.18.

On to G2A G7A G19U C37U C42A, for which the self-cleavage is 0.21.

Take C3G C23G U43C: the self-cleavage came to 0.18.

G1U G2A C31A G35A G36C: the self-cleavage was determined as 0.01.

For the variant G5A C13U G30C, the self-cleavage worked out at 0.04.

Consider C23U G35U G44A, for which the self-cleavage was determined as 0.

For C10G A14U C37G, the self-cleavage worked out at 0.01.

For the variant G19U U34G A41U, the self-cleavage was found to be 0.52.

With A4G C10U U38A, the self-cleavage came out at 0.01.

On to G7A C8G U28G G29C, for which the self-cleavage was 0.02.

With A4G C23U A26G C31U, the self-cleavage came out at 0.56.

Take U9C A11U C13G G17C U20C C31A C42A: the self-cleavage was 0.

As to G1U C18A U34G G35U, the self-cleavage was 0.02.

Take A4U U9G A12C G33A: the self-cleavage is 0.02.

As for G29U G35U U38G, the self-cleavage was 0.03.

In the case of A6C G22U C31G, the self-cleavage was 0.03.

As for A6C C15G G29U, the self-cleavage was 0.03.

In the case of A24C G29A C31G, the self-cleavage came to 0.08.

Consider G2A G5C A16G G21C C42G, for which the self-cleavage amounted to 0.08.

Regarding G19A C23G U28A, the self-cleavage is 0.3.

Consider A14U A26U G40U, for which the self-cleavage stood at 0.09.

Consider A12U G29A G40U, for which the self-cleavage amounted to 0.06.

Consider A4G A11C C18U G22C, for which the self-cleavage came to 0.03.

Regarding A16U G22A G30C, the self-cleavage came to 0.02.

Regarding G1C U32C U43G, the self-cleavage was 0.

Take G7C G17A G40U: the self-cleavage was 0.08.

On to G17A C18A G27U G30C, for which the self-cleavage amounted to 0.23.

As for C18A A26U U38C, the self-cleavage turned out to be 0.04.

On to C18G A25C G35U U43G C46A, for which the self-cleavage is 0.02.

In the case of C18A U28A C37G U43G, the self-cleavage was 0.02.

Turning to G2C A4G A6C G7U G19U G29U C31A, the self-cleavage came to 0.06.

Turning to G1C G2A C10U C13A, the self-cleavage is 0.06.

With C8A C18G A26U G33U, the self-cleavage was 0.06.

In the case of A14G G17A A24G, the self-cleavage was 0.06.

As to G21U U34G G40U, the self-cleavage was 0.27.

For G7A A14G U34A, the self-cleavage is 0.07.

As to C15U A26C C45A, the self-cleavage is 0.12.

On to G2A A12G G22A G33U, for which the self-cleavage was found to be 0.06.

As to C13U G30C U38G, the self-cleavage worked out at 0.01.

With G2U C31A U43A, the self-cleavage stood at 0.01.

As to C13G A14C C18A G19U U43C, the self-cleavage is 0.01.

Consider C3U A11G G19C, for which the self-cleavage came out at 0.07.

Turning to A11G U43C C46A, the self-cleavage is 0.

On to G7U G22U C23U A25G U28G G30U G40U, for which the self-cleavage was 0.01.

Take G1A C8A C13G A14G U28G G33C: the self-cleavage was 0.05.

Turning to C15G A25U G36U U43G, the self-cleavage was found to be 0.

Regarding A14C G22U A25C G29A G30C G35A, the self-cleavage was found to be 0.05.

As to C8A A14G C42G, the self-cleavage turned out to be 0.22.

C8G C10G C15U U38A U43A C45U: the self-cleavage is 0.01.

Regarding C8A C10A G29C A39U, the self-cleavage stood at 0.01.

Turning to G7A C8A C31U A39G G44C, the self-cleavage was 0.03.

Consider C8G C18U G35U, for which the self-cleavage was 0.04.

G5U G21C C42U: the self-cleavage was 0.09.

With C15U C37A C42U, the self-cleavage stood at 0.08.

As for G27U A41C C45A, the self-cleavage came out at 0.07.

On to G5C A12U U20A G21C A26C C37A U43G, for which the self-cleavage stood at 0.

On to G1C G2C U43A, for which the self-cleavage came out at 0.01.

Regarding C8U C15U C42U, the self-cleavage is 0.05.

In the case of G17U C18A A39G G44C, the self-cleavage is 0.01.

For the variant A14U U20C U32C, the self-cleavage stood at 0.06.

C8G A14G G21A A41U: the self-cleavage was found to be 0.01.

For C3A C13G G17U C18U A39C, the self-cleavage came to 0.01.

With C3G C23A C37G G40A A41U C42A, the self-cleavage amounted to 0.15.

In the case of C8A C10G C18G A41U, the self-cleavage stood at 0.01.

For G29U A41G C42G, the self-cleavage is 0.02.

On to C8G C45U C46U, for which the self-cleavage worked out at 0.01.

G2U A26C U43A C45A: the self-cleavage worked out at 0.02.

As to G35C G36C C42U G44C, the self-cleavage came out at 0.02.

For C3A G27C C31G U38G U43C G44U, the self-cleavage was 0.02.

Turning to A6G C15G U32A C42A C46A, the self-cleavage turned out to be 0.01.

Turning to A12C A25G G44U, the self-cleavage was determined as 0.05.

For G7C G29U C31A U38G, the self-cleavage is 0.03.

Regarding U9G C13G A14U A16U G30A, the self-cleavage was determined as 0.02.

As to G7U G29A G36U A39C, the self-cleavage amounted to 0.

G2A C31A U34A: the self-cleavage was determined as 0.03.

For C3A G5A C15A G21C U38C C45A, the self-cleavage was 0.06.

Turning to G2U G5C C10U A16C C45A, the self-cleavage is 0.01.

As for G7U G21A C45G, the self-cleavage came out at 0.45.

As to A11U C23U U28G A39C, the self-cleavage was determined as 0.

As to C15A A26C C45U, the self-cleavage was determined as 0.01.

On to G2C A26G C45G, for which the self-cleavage is 0.2.

With U20C C23A G35U U43C, the self-cleavage turned out to be 0.13.

For the variant G17U C18G C23U G40C C42U, the self-cleavage came out at 0.

Turning to C18U A24C G44C C45U, the self-cleavage came to 0.12.

Take A11G G22C C37G: the self-cleavage was determined as 0.03.

For the variant A12U G27C G35C C42G, the self-cleavage was found to be 0.01.

Consider A6G C37U C45U, for which the self-cleavage came to 0.

Regarding A4C C15A C37U, the self-cleavage stood at 0.13.

As for C3A U9G A25G, the self-cleavage stood at 0.04.

For the variant A11U C15U C31A G40C C46U, the self-cleavage came to 0.01.

Turning to C3U C10A A16G A24G, the self-cleavage was found to be 0.03.

G29U G33U C42G G44C C46U: the self-cleavage is 0.01.

In the case of G5A C13U G40A, the self-cleavage is 0.12.

Consider G1U A6G A41G, for which the self-cleavage was found to be 0.07.

Take G7U A26C G40A: the self-cleavage was determined as 0.11.

In the case of G1A C3A C15G G27U, the self-cleavage turned out to be 0.22.

For U20G G22U G30C C42A, the self-cleavage turned out to be 0.14.

As for C10A C15A G35C G36A C42G, the self-cleavage is 0.01.

Consider C3U G19A U38A, for which the self-cleavage turned out to be 0.16.

As for G2A G5U C13G A26C G29A G40A, the self-cleavage is 0.54.

On to C3U U32C G33A U34G, for which the self-cleavage came out at 0.

Take G7C C13A C37A: the self-cleavage came to 0.07.

As for G1C A12C G21U A26G G33C U34A C37G U43G, the self-cleavage came out at 0.

As to U9G G22A C31A, the self-cleavage was found to be 0.

In the case of C23G G35A C37G, the self-cleavage came out at 0.

Consider G5U C13U A14G G40U, for which the self-cleavage turned out to be 0.07.

Take G2C A4U A11U A26U C31A: the self-cleavage is 0.03.

G2U C3U C37G: the self-cleavage turned out to be 0.07.

For the variant C8A C10G U34G, the self-cleavage amounted to 0.02.

With A11G C13U G29U, the self-cleavage was determined as 0.03.

For the variant C8U C15G G21U C45U, the self-cleavage was determined as 0.02.

Take G2U G30A C46A: the self-cleavage is 0.04.

On to A12G G36A C42A, for which the self-cleavage came out at 0.03.

On to C3G C10U C13A, for which the self-cleavage worked out at 0.19.

As to A25G G30U C31A, the self-cleavage was determined as 0.04.

Take A4C A14C G36C U43A: the self-cleavage amounted to 0.05.

In the case of C15A G35A A39U C46A, the self-cleavage was found to be 0.02.

A26U C31G G40C: the self-cleavage was found to be 0.1.

With A6C C15G C46A, the self-cleavage turned out to be 0.02.

As to G2C A4G A26C, the self-cleavage is 0.08.

In the case of A12C A24C C37A, the self-cleavage was found to be 0.02.

In the case of G7A G19A U20A, the self-cleavage turned out to be 0.06.

Regarding C15A G33U G36A, the self-cleavage is 0.05.

For the variant A6U A24C G27A, the self-cleavage stood at 0.44.

As for C18G A24U C42G, the self-cleavage is 0.

With A11G C37G C42U, the self-cleavage amounted to 0.

In the case of A4C G17C A41U, the self-cleavage came out at 0.01.

For A26G G27C C31U C37A, the self-cleavage was determined as 0.02.

As to G7C C37A U43A, the self-cleavage was determined as 0.04.

Regarding G19C U32A U34G, the self-cleavage stood at 0.

In the case of C15A G17C U34C, the self-cleavage was 0.01.

For the variant A4G C10U C18A U20G C31U U43A, the self-cleavage was 0.03.

With C18A G29U C37U, the self-cleavage was found to be 0.01.

On to G1C C15U G27A, for which the self-cleavage came out at 0.26.

Take C15U G17A G27A: the self-cleavage was determined as 0.33.

Consider C8U A14C G19A U28A, for which the self-cleavage was 0.

In the case of G2A C3G G19U C23U, the self-cleavage was determined as 0.16.

With A4C U20A G29U, the self-cleavage is 0.02.

Turning to G2A C8U A14C A26G C46G, the self-cleavage came out at 0.24.

With A12C C13A G17C, the self-cleavage turned out to be 0.09.

Regarding C3G G17C G40C C42A, the self-cleavage was determined as 0.1.

Take A4U A6U G21C: the self-cleavage is 0.52.

In the case of A11U G17U G19U C45A, the self-cleavage was 0.04.

As for A4C A26G G35C G36A G44C, the self-cleavage was determined as 0.02.

With U9A G27U C45G, the self-cleavage is 0.15.

C13G A14U G40A C42U: the self-cleavage came to 0.01.

As for A11U C23A A26G G30A, the self-cleavage came to 0.53.

G2A A11G U34A A39G U43C: the self-cleavage was 0.02.

As for A25G U28C G40A, the self-cleavage turned out to be 0.02.

For the variant G2U A12C A39G, the self-cleavage was found to be 0.02.

Consider C3A C15U G33A, for which the self-cleavage was determined as 0.79.

For G5A A26U A39U U43C, the self-cleavage amounted to 0.05.

A4G G5A A16G C18A U20G C46A: the self-cleavage amounted to 0.05.

As to A11C A12C C37G, the self-cleavage was found to be 0.02.

Take U9A A12U C13A: the self-cleavage stood at 0.4.

On to G2C A4G G27A A39G, for which the self-cleavage was 0.01.

Take G27A G35C A39U: the self-cleavage was 0.09.

Turning to A24U U38A C42G, the self-cleavage stood at 0.

Take A24U A41U U43G: the self-cleavage stood at 0.04.

Turning to G2U A25U G30A, the self-cleavage came out at 0.04.

In the case of C8U U9G A12C C18U U20G G27U G30U, the self-cleavage is 0.01.

On to C10U A14C G30A G35C C45G, for which the self-cleavage was 0.

In the case of G1A G2C C13A A41U, the self-cleavage was 0.21.

Turning to G2U C18A G27U A39U C46U, the self-cleavage stood at 0.05.
